This note sets out measurements from PubChem BioAssay AID1508642 (National Center for Advancing Translational Sciences (NCATS), 2021).

The whole screen tested about 43,000 compounds, of which about 200 (0.47%) were called active. Not shown: some 12% with an inconclusive outcome. Calls come from the whole dose curve; as a rule, active = well fitted cell-killing curve with a large enough effect; inconclusive = small, poorly fitted or top-dose-only effect, or effect the other way; inactive = flat fitted curve, though single readings scatter. This is one part of the list.
% is set by controls: 0 for no effect and ±100 for the full control effect; potency is the fitted concentration of half-maximal effect.

The nature of this assay: Cell viability qHTS assay in S16 Pmp22-F2sN cells. Note: nearly all actives have a fitted effect of over 65% in size. Conditions: S16 Pmp22-F2sN Schwann cells (luciferase reporters placed in the Pmp22 gene) viability, CellTiter-Glo, 24 h; series mostly up to 57.5 µM; activity change, negative = cytotoxicity: at the top concentration. The method, boiled down: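 Rat S16 Schwann reporter line, 24 h treatment with library compounds delivered at 23 nL per well. Cell viability by CellTiter-Glo luminescence.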
In general terms: qHTS replaces the single test concentration by a dilution series.
Take `COc1cccc(CNC(=O)CN2C(=O)CCn3nc(-c4cn(C)c5ccccc45)cc32)c1OC`: the “activity change, negative = cytotoxicity” value was inactive: -10.2%. For the compound `COc1cc(OC)cc(C(=O)Nc2ccc(S(=O)(=O)Nc3onc(C)c3C)cc2)c1`, the “activity change, negative = cytotoxicity” value is inactive: 6.76%. Regarding `CCOC(=O)c1c(C)[nH]c(CCC(=O)Nc2cc(C)cc(C)c2)c1C`, the “activity change, negative = cytotoxicity” value is inactive: -29%. As to `Cc1ccc(-n2c3c(cc(-c4nc(-c5ccc(Cl)cc5)cs4)c2=O)C(=O)CC(C)(C)C3)cc1`, the “activity change, negative = cytotoxicity” value is inactive: 10%. For `O=C(NCCc1ccccc1)c1ccc(CSc2nc3ccncc3n2Cc2ccccc2)cc1`, the “activity change, negative = cytotoxicity” value is inactive: -6.73%. For `Cc1ccc(NC(=O)CSc2nc(C)cc(C)c2C(=O)Nc2cccc(C)c2)cc1`, the “activity change, negative = cytotoxicity” value is inactive: 8.17%.

As for `COc1ccc(NC(=O)Cn2ncc3c([nH]c4ccccc43)c2=O)cc1Cl`, the “activity change, negative = cytotoxicity” value is inactive: 4.45%. As for `CCN(CC)CCCNC(=O)c1cn(C)c2ccc(S(=O)(=O)N3CCOCC3)cc2c1=O`, the “activity change, negative = cytotoxicity” value is inactive: 10.3%. Same read-out and setting: the value for `CCOC(=O)c1cccc(NC(=O)c2cc(-c3ccc(Cl)s3)nc3ccccc23)c1` was inactive: -24.8%; that for `COc1ccccc1NC(=O)c1sc2nc(-c3cc4ccccc4oc3=O)[nH]c(=O)c2c1C` was inactive: -13.5%; that for `Cc1cc(C)cc(NC(=O)c2cccc(N3CCCS3(=O)=O)c2)c1` was inactive: 0.392%. Turning to `Cc1cccc(NC(=O)c2c(NC(=O)c3ccco3)sc3c2CCC(C(C)(C)C)C3)c1` (stereo unspecified), the “activity change, negative = cytotoxicity” value is inactive: -2.47%. As to `CN(Cc1ccccc1)C(=O)C1CCN(Cc2cc3ccccc3n2Cc2ccccc2)CC1`, the “activity change, negative = cytotoxicity” value was inactive: -26.7%.

For `Cc1cccc(C(=O)Nc2nnc(SCc3cc(=O)n4cccc(C)c4n3)s2)c1`, the “activity change, negative = cytotoxicity” value is inactive: 6.3%.

As for `COc1ccc(C(=O)N/C(=C\c2cn(S(=O)(=O)N(C)C)c3ccccc23)C(=O)NCCCn2ccnc2)cc1`, the “activity change, negative = cytotoxicity” value was inactive: -0.103%. Same read-out and setting: the value for `O=C(CSc1nnc(-c2ccccc2F)o1)N1CCc2ccccc21` was inactive: -0.544%; that for `CCOc1ccccc1NC(=O)CCNS(=O)(=O)c1ccc2c(c1)CCN2C(=O)C1CC1` was inactive: 0.406%; that for `CCC(Sc1nnc(-c2ccc(OC)cc2)c(-c2ccc(OC)cc2)n1)C(=O)Nc1cccc(OC)c1` (stereo unspecified) was inactive: -0.0548%.

`Cc1ccc(OCCCC(=O)Nc2sc3c(c2C(N)=O)CCCC3)cc1`: the “activity change, negative = cytotoxicity” value is inactive: 17.5%. Still for that read-out and setting: the value for `Cn1ncc2c(N3CCN(c4ccccc4Cl)CC3)ncnc21` was inactive: -12.7%; that for `CCCCN(C)C(=O)Cn1ncc2c([nH]c3ccc(C)cc32)c1=O` was inactive: 6.74%. `Cc1ccc(/C=C/c2onc(C)c2S(=O)(=O)N2CCC(C(=O)NCc3ccc(N(C)C)cc3)CC2)cc1`: the “activity change, negative = cytotoxicity” value was inactive: 7.95%. The same measure, in the same setting: the value for `CCCCS(=O)CC(O)CSc1nc(-c2ccc(OC)cc2)cc(-c2ccccc2)c1C#N` (stereo unspecified) was inactive: -19.4%. Turning to `COc1ccc(NC(=O)CN(c2ccc(C)cc2)S(=O)(=O)c2cccs2)cc1OC`, the “activity change, negative = cytotoxicity” value is inactive: -2.59%. The same measure, in the same setting: as for `CCC1CN(C(=O)Nc2ccccc2C(F)(F)F)c2ccccc2S1` (stereo unspecified), the figure is inactive: -2.55%. The same measure, in the same setting: the value for `CCOC(=O)c1cccc(NC(=O)c2cnn(-c3ccccc3)c2-n2cccc2)c1` was inactive: -17.7%.

Take `CC(=O)N1c2ccccc2C(=O)C1N1CCN(c2cc(Cl)ccc2C)CC1` (stereo unspecified): the “activity change, negative = cytotoxicity” value is inactive: -26.5%. `O=C(CSCc1cc(=O)c2ccccc2[nH]1)Nc1cccc(C(F)(F)F)c1`: the “activity change, negative = cytotoxicity” value was inactive: 2.73%.

In the case of `CC(=O)c1ccc(N2CCN(S(=O)(=O)c3ccc4[nH]c5c(c4c3)CCCCC5)CC2)cc1`, the “activity change, negative = cytotoxicity” value is inactive: 2.56%.

With `COc1ccc(NC(=O)CN2C(=O)CC(c3ccco3)Sc3ccccc32)cc1OC` (stereo unspecified), the “activity change, negative = cytotoxicity” value is inactive: 0.102%. Take `COC(=O)c1scc(-c2ccc(C)cc2)c1S(=O)(=O)Nc1c(C)cc(C)cc1C`: the “activity change, negative = cytotoxicity” value is inactive: 8.91%. With `Cc1nc2c(-c3ccccc3)c(C)[nH]n2c(=O)c1Cc1ccc(C(C)C)cc1`, the Potency was active: 8.91 µM. As to `CCS(=O)(=O)c1ncc(N(Cc2cccc(F)c2)Cc2ccco2)c(C(=O)Nc2ccccc2Cl)n1`, the “activity change, negative = cytotoxicity” value is inactive: 3.21%.

Turning to `CCC1CN(C(=O)N2CCC(C(=O)N(C)Cc3ccccc3)CC2)c2ccccc2O1` (stereo unspecified), the “activity change, negative = cytotoxicity” value was inactive: 1.09%. In the case of `Cc1ccc(CNC(=O)c2cc(S(=O)(=O)N3CCCCC3)cn2C)cc1`, the “activity change, negative = cytotoxicity” value was inactive: 2.36%. On the same count and under the same terms, as for `COc1ccc2c(c1)c1c(c(=O)n(Cc3ccccc3)c(=O)n1Cc1ccc(C)cc1)n2C`, the figure is inactive: 6.12%; as for `CC(CNC(=O)CN1C(=O)COc2ccc(S(=O)(=O)N3CCCCC3)cc21)c1ccccc1` (stereo unspecified), inactive: 4.69%; as for `O=C(Nc1ccc(Cl)cc1)C1CCN(S(=O)(=O)c2ccc(Br)s2)CC1`, inactive: -28.7%. Same read-out and setting: as for `Cc1ccccc1C(=O)Nc1ccc(C(=O)OCc2cc(=O)n3nc(C4CC4)sc3n2)cc1`, the figure is inactive: -29%.

With `COc1ccc(-c2cc(C(F)(F)F)n3nc(C(=O)Nc4sc5c(c4C#N)CCC(C)C5)cc3n2)cc1OC` (stereo unspecified), the “activity change, negative = cytotoxicity” value is inactive: 2.6%. The same measure, in the same setting: the value for `CCOC(=O)C1CCN(C(=O)c2cc3ccc4ccc(C)[nH]c4c3n2)CC1` was inactive: 21.6%; that for `CCC(C)NC(=O)c1[nH]c2cc(OC)ccc2c1Sc1ccc(C)cc1` (stereo unspecified) was inactive: 6.85%; that for `COc1cccc(NC(=O)c2sc3nc(C)c(C(=O)Nc4ccc(C)cc4C)c(-c4ccccc4Cl)c3c2N)c1` was inactive: 5.07%. On the same count and under the same terms, as for `Cc1ccc(CCNC(=O)c2ccc(NC(=O)N3CC(C)Sc4ccccc43)cc2)cc1` (stereo unspecified), the figure is inactive: -2.81%; as for `COC(=O)C1=C(c2ccccc2)c2ccccc2S(=O)(=O)N1CC(=O)Nc1cccc(C(C)=O)c1`, inactive: -18.7%. Consider `Cc1ccc2nc(N(Cc3cccnc3)C(=O)Cc3ccccc3)sc2c1`, for which the “activity change, negative = cytotoxicity” value was inactive: 1.14%.
